Fewer than 10 of roughly 2,800 compounds were called active. The call rests on the fitted dose curve; in most records, active means well fitted curve in the direction sought with a large enough effect; inconclusive means small, poorly fitted or top-dose-only effect, or another doubt; inactive means no such curve, though single readings can be large or run the other way. The list shows a part of the results.
The compounds below were run against Metallo-beta-lactamase type 2 (Klebsiella pneumoniae) (UniProt C7C422) (assay: qHTS to identify inhibitors of the New Delhi Metallo-beta-lactamase (NDM): Meropenem screen against the machine-based learning selections.). Conditions: Purified NDM-1, meropenem hydrolysis, absorbance 300 nm; at 38.4 µM (top of the series) unless noted.
Excerpt: Assay Submitter (PI): James Inglese Ph.D., Patricia Dranchak Ph.D., Mahesh Aitha Ph.D. Assay Development and Screening Technology Laboratory (ADST) National Center for Advancing Translational Sciences (NCATS), Rockville, MD National Institute of Health (NIH), Bethesda, Maryland The metallo-beta-lactamases (MBL) are a main antibiotic resistance mechanism evolved by bacteria. There is an urgent clinical need for MBL inhibitors to mitigate this growing threat. To support a machine-based learning study, qHTS has been used to experimentally test inhibitors identified by prediction tools.
PROTOCOL TABLE (as described by Inglese et al., 2007) SEQUENCE No. (e.g., 1, 2, 3, etc.); […] (e.g., enzyme, Incubation, Reagent, etc.); VALUE; DESCRIPTION Primary Screen 1; NDM-1; 4 uL of 3 nM enzyme [2 nM final] in 50 mM HEPES (pH 7.0), 1 uM […], 0.01% Tween20; Use BioRaptr to dispense into two sets of Aurora black, clear bottom high base 1536-well plates 2; Compounds; 23 nL; Use Pin Tool (Wako) to transfer DMSO control and library compounds in DMSO 3; Incubate; >30 min 4a; Reagent; 2 uL of 50 uM nitrocefin [16.7 uM final] to one set of assay plates 4b; Reagent; 2 uL of 150 uM meropenem [50 uM final] to second set of assay plates 5a; Incubate; 15 min 5b; Incubate; 30 min 6a; Detector; Absorbance at 485 nm (bandwidth = 5 nm, 25 flashes/well) on Tecan Infinity 6b; Detector; Absorbance at 300 nm (bandwidth = 5 nm, 25 flashes/well) on Tecan Infinity NOTES (numbers refer to sequence above) 1; Column 1 of each plate received assay buffer without enzyme and columns 2-48 received enzyme for a final assay concentration of 2 nM. 2; Control plate contained DMSO in columns 1, 2, 3, and 4. 3; Compound interaction with enzyme. 4; Nitrocefin and meropenem substrates were prepared in the same assay buffer as step 1 for a final assay concentration of 16.7 uM and 50 uM, respectively, and added to all wells across respective sets of assay plates. 5; Default reader settings were applied for absorbance read at 485 nm (nitrocefin) or 300 nm (meropenem), bandwidth = 5 nm, 25 flashes/well. References: Inglese J, Shamu CE, Guy RK. 2007. Reporting data from high-throughput screening of small-molecule libraries. Nat Chem Biol. doi:10.1038/nchembio0807-438 Yasgar A, Shinn P, Jadhav A, Auld D, Michael S, Zheng W, Austin CP, Inglese J, Simeonov A. 2008. Compound Management for Quantitative High-Throughput Screening. J Lab Autom 13:79 - 89. doi:10.1016/j.jala.2007.12.004
Further: % of control where 0% means no effect.

Chain of UniProt C7C422 (C7C422 whole entry, looked up): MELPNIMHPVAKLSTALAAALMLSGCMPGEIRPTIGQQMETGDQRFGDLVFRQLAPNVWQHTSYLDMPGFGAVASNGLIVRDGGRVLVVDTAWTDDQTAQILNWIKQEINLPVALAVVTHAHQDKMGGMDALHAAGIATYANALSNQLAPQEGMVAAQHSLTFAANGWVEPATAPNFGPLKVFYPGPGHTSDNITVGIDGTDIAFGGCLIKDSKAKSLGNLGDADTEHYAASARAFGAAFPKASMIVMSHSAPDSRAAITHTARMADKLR

SMILES	activity change, negative = inhibition
COC[C@H]1CCCN1Cc1nc(C2(O)CCN(C)CC2)cs1	inactive: 1.03% [at 57.5 µM]
Cc1ccccc1-c1cnc2[nH]cc(CC(=O)Nc3cccnc3)c2c1	inactive: 7.62% [at 57.5 µM]
Cc1n[nH]c(C)c1CN1C[C@@H](CO)[C@H](NC(=O)c2ccccc2)C1	inactive: 0.992%
CC(=O)N1CCC(N2C[C@@H]3OCC(=O)N[C@@H]3C2)CC1	inactive: 1.4% [at 76.7 µM]
O=C1CN(C(=O)[C@H]2CN(Cc3ccccc3)C[C@H]2C(=O)O)CCN1	inactive: 50.1%
O=C(NCC1CCOCC1)c1cnc2n[nH]c(-c3ccccc3)c2n1	inactive: 4.55% [at 57.5 µM]
COC(=O)[C@H](NC(=O)[C@@H]1C[C@@H](NC(=O)c2ccncc2)CCN1S(=O)(=O)c1ccc(OC)cc1)C(C)C	inactive: -0.0853%
O[C@@H]1C[C@@H](c2nc(-c3cnccn3)no2)N(Cc2ccc(F)cc2)C1	inactive: -0.302% [at 57.5 µM]
Clc1cccc(-c2cnc([C@@H]3COCCN3Cc3cnc[nH]3)[nH]2)c1	inactive: 98.2% [at 57.5 µM]
Cc1nc2c(c(-c3ccc(O)cc3)n1)CN(C(=O)C1CC1)CCC2	inactive: 0.42% [at 57.5 µM]
COC(=O)c1cccc(C(=O)N[C@H]2CO[C@H]3[C@@H]2OC[C@H]3OC(=O)Nc2cccc(C(F)(F)F)c2)c1	inactive: -0.473%
CCN(C)S(=O)(=O)NCC1CCN(c2cnn(C)c(=O)c2)C1 (centres undefined)	inactive: 3.1%
O=C(NCc1cc2n(n1)CCN(C1CCCCC1)C2)c1cnn2ccccc12	inactive: 0.117%
COc1ccc(NC(=O)c2nc(C(O)c3cccc(O)c3)oc2C)cn1 (centres undefined)	inactive: 6.58% [at 57.5 µM]
O=C(NC[C@H]1O[C@@H](CO)[C@@H](O)[C@H]1N1CCN(c2ccc(F)cc2)CC1)c1ccccc1	inactive: 49.5%
CCN(Cc1cnn(CC)c1)C(=O)C1COc2ccccc2C1 (centres undefined)	inactive: -0.808%
COc1ccc(C(=O)N[C@H]2CO[C@H]3[C@@H]2OC[C@@H]3n2nnnc2-c2ccc3c(c2)OCO3)cc1	inactive: 2.13%
COc1cc(C)c2c(c1C)C[C@H](C(C)C(=O)N1CCSCC1)CC2 (some centres undefined)	inactive: -0.792% [at 57.5 µM]
CC1(c2ccccc2)CCCN(C(=O)c2cc(-c3ccncc3)n[nH]2)C1 (centres undefined)	inactive: 0.839%
c1cncc(-c2ccnc(NCCCn3nccc3C3CC3)n2)c1	inactive: -0.339%

SMILES	activity change, negative = inhibition
CC(=O)N1CCN(C(=O)C2CCNCC2)C[C@@H]1C(=O)N[C@@H](CC1CCCCC1)C(N)=O	inactive: -2.13%
CC1(CNc2ccccc2)COc2ccc(C(=O)NCCc3ccccn3)cc2N1 (centres undefined)	inactive: 29% [at 57.5 µM]
NC(=O)c1nc(CNC(=O)[C@H]2CCC[C@H](O)C2)no1	inactive: -0.953%
COc1ccccc1CNC[C@H]1O[C@@H]2C[C@@H](CC(=O)NCc3nccn3C)O[C@@H]2[C@@H]1O	inactive: -0.0538% [at 57.5 µM]
COc1ccc(OC)c(S(=O)(=O)N2CCCC(Cn3c(C)nc4cccnc43)C2)c1 (centres undefined)	inactive: 0.467%
O=C1Nc2ccc(-c3ccc(Cl)cc3)cc2C(=O)N2CC[C@H](NC(=O)N3CCOCC3)[C@@H]12	inactive: 3.16%
COCCCNC(=O)CCC[C@@H]1[C@H]2CCCN3CCC[C@@H](CN1C(=O)c1ccccc1)[C@@H]23	inactive: 0.47%
NC(=O)NCCN1CCCC(N2CCN(c3cccc(C(F)(F)F)c3)CC2)C1 (centres undefined)	inactive: 44.2%
NC(=O)Cc1c[nH]c2ncc(-c3cccc(O)c3)cc12	inactive: 11.3% [at 76.7 µM]
COc1ccc(CN2C(=O)[C@@H]3C[C@@H](CN3C3CCN(C)CC3)Oc3ccccc32)cc1	inactive: 0.857% [at 57.5 µM]
C[C@@H](O)[C@H](N)C(=O)NCc1nc(-c2cccc(F)c2)c(-c2ccccn2)[nH]1	inactive: 31.9%
COCC(=O)N[C@@H]1CCC[C@@H](C(=O)NCc2cc(F)cc(F)c2)CC(=O)N(C)C1	inactive: 0.273% [at 57.5 µM]
COc1ccc(CN2CCNc3cnc(Nc4ccccc4)cc3C2)cc1O	inactive: 9.11% [at 57.5 µM]
CC1(C(=O)NCCOc2ccccc2)CCCc2cnc(Nc3cccnc3)nc21 (centres undefined)	inactive: -0.829% [at 57.5 µM]
O=C1CCCCC(CNC(=O)c2ccccc2)N1 (centres undefined)	inactive: -3.43%
CC(c1ccc(-c2ccc(N(C)C)nn2)cc1)N(C)C (centres undefined)	inactive: 17.4%
OCc1cccc(-c2cc3c(cn2)CN(Cc2ccccc2)CCN3)c1	inactive: -2.42% [at 57.5 µM]
CN(C)CC(NC1CCC2(CCNCC2)CC1)c1ccccc1 (centres undefined)	inactive: 10.6%
COC[C@H]1C[C@@H](NC(=O)Nc2cccnc2)[C@H](O)[C@@H]1O	inactive: 38.1% [at 76.7 µM]

Reference: PubChem BioAssay AID1794842 (National Center for Advancing Translational Sciences (NCATS), 2023)
